Drawing on the supplement of paper PMC4604168 (melanoma cell lines), this text covers cell count for 4 compounds.

Each structure is given as a SMILES string. The list shows a part of the results. Most values come without repeats; read them as rough.
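Also: cells treated in 1,536-well plates, then fixed and DAPI-stained, with nuclei counted from automated high-throughput microscope images.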

This assay has as its system COLO800. The assay is described as follows: cell count relative to DMSO control; melanoma cells; higher = more viable cells. To be noted: library dose: standard library concentration; 72 h.
In turn, `CO[C@H]1C[C@@H]2CC[C@@H](C)[C@@](O)(O2)C(=O)C(=O)N2CCCC[C@H]2C(=O)O[C@H]([C@H](C)C[C@@H]2CC[C@@H](OCCO)[C@H](OC)C2)CC(=O)[C@H](C)/C=C(\C)[C@@H](O)[C@@H](OC)C(=O)[C@H](C)C[C@H](C)/C=C/C=C/C=C/1C` [everolimus] + NCC(=O)Nc1ccc(-n2nc(C(F)(F)F)cc2-c2ccc3c(ccc4ccccc43)c2)cc1 [OSU03012] (first compound 0.1 µM, partner dose 5 µM) had a cell count of 51.1%.
As to `CC(=O)c1c(C)c2cnc(Nc3ccc(N4CCNCC4)cn3)nc2n(C2CCCC2)c1=O` [palbociclib] + Oc1cc(-c2nc(-c3ccccc3)[nH]c2-c2ccncc2)ccc1Cl [L779450] (first compound 0.2 µM, partner dose 1 µM), the cell count turned out to be 92.1%.
The figure for `Nc1ccn([C@@H]2O[C@H](CO)[C@@H](O)C2(F)F)c(=O)n1` [gemcitabine] + CC1(C)NC(=O)N(c2ccc([N+](=O)[O-])c(C(F)(F)F)c2)C1=O [nilutamide] (first compound 0.002 µM, partner dose 5 µM) is 42.2%.
`CO[C@H]1C[C@@H]2CC[C@@H](C)[C@@](O)(O2)C(=O)C(=O)N2CCCC[C@H]2C(=O)O[C@H]([C@H](C)C[C@@H]2CC[C@@H](OCCO)[C@H](OC)C2)CC(=O)[C@H](C)/C=C(\C)[C@@H](O)[C@@H](OC)C(=O)[C@H](C)C[C@H](C)/C=C/C=C/C=C/1C` [everolimus] + C=CCNC1=C2C[C@@H](C)C[C@H](OC)[C@H](O)[C@@H](C)/C=C(\C)[C@H](OC(N)=O)[C@@H](OC)/C=C\C=C(/C)C(=O)NC(=CC1=O)C2=O [Tanespimycin] (first compound 0.1 µM, partner dose 0.01 µM) gave a cell count of 88.6%.
